{
  "source": "PubChem BioAssay AID686971",
  "about": "(National Center for Advancing Translational Sciences (NCATS), 2013)",
  "note": "Hit rate of the full screen: of about 360,000 compounds, about 7,500 (2.1%) were called active. This list was built around the results that the source calls inconclusive (neither active nor inactive); the mix of calls is not that of the screen. The call rests on the fitted dose curve; in most records, active means well fitted cell-killing curve with a large enough effect; inconclusive means small, poorly fitted or top-dose-only effect, or effect the other way, or another doubt; inactive means no such curve, though single readings can be large or run the other way. Potencies of inconclusive entries are left out as doubtful fits. Potency means the concentration at half of the fitted maximal effect; tags describe the fitted curve by direction and shape.",
  "data": [
    {"test": "qHTS for induction of synthetic lethality in tumor cells producing 2HG: qHTS for the HT-1080-IDH1KD cell line;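 on activity, negative = toxicity: 0% = DMSO wells and -100% = cell-free medium wells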", "conditions": "HT-1080 IDH1 knockdown viability, ATP luminescence, 48 h; activity, negative = toxicity: at 46.1 µM (top of the series) unless noted", "procedure,_shortened": "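IDH1KD HT-1080 cells, 750/well, RPMI + 5% FBS; compound pinned after 2 h settling; 48 h, 37 °C; CellTiter-Glo luminescence; % activity normalised to DMSO and no-cell wells; curves fitted, classed by r2 and efficacy.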", "values": [
      {"smiles": "Cc1cc(C(=O)OCCO)c(C#N)c(N)n1", "activity, negative = toxicity": "inactive: 6%"},
      {"smiles": "COc1ccccc1N1CCN(C(=O)C(CC(C)C)NC(=O)C2CCCCC2)CC1", "note": "(stereo unspecified)", "activity, negative = toxicity": "inactive: -0.248%"},
      {"smiles": "Cc1ccc(S(=O)(=O)N2CCOCC2)cc1C(=O)N1CC(C)OC(C)C1", "note": "(stereo unspecified)", "activity, negative = toxicity": "inactive: 13.1%"},
      {"smiles": "O=c1cc(O)n(-c2ccccc2F)c(=S)[nH]1", "Potency": "inconclusive [rising, single point]"},
      {"smiles": "COC(=O)c1ccccc1NC1=C/C(=N\\S(=O)(=O)c2ccc(C(=O)O)cc2)c2ccccc2C1=O", "Potency": "active: 20.6 µM"},
      {"smiles": "CCOc1ccc(-c2cc(CCCC(=O)Nc3cccc(OC)c3)no2)cc1", "Potency": "active: 18.4 µM"},
      {"smiles": "O=C(c1ccc(Cl)c(S(=O)(=O)Nc2ccc(F)cc2)c1)N1CCN(c2ccccn2)CC1", "Potency": "inconclusive [cytotoxic, single point]"},
      {"smiles": "O=[N+]([O-])c1cccc(COc2ccccc2CN2CCCC2)c1", "activity, negative = toxicity": "inactive: 5.81%"},
      {"smiles": "CN(C)CCNC(=O)c1cc2c(s1)-c1ccc(Cl)cc1SC2", "Potency": "inconclusive [cytotoxic, single point]"},
      {"smiles": "CC(=O)Nc1cccc(-c2ccnc3c2CC(C)(C(=O)NCc2ccc(N(C)C)cc2)O3)c1", "note": "(stereo unspecified)", "Potency": "active: 5.17 µM"},
      {"smiles": "Cc1nn(-c2ccccc2)c2sc(C(=O)NC3CCCCC3)cc12", "Potency": "inconclusive [cytotoxic, single point]"},
      {"smiles": "CCOC(=O)Cc1nnc(NC(=O)CSc2nnc3c4ccccc4n(C)c3n2)s1", "Potency": "inconclusive [cytotoxic, single point]"},
      {"smiles": "Cc1cc(OCc2cn(CC(=O)c3ccc(O)cc3)nn2)ccc1[N+](=O)[O-]", "Potency": "inconclusive [cytotoxic, partial curve]"},
      {"smiles": "CC(C)C(=O)N1CCC(Cc2ccccc2)CC1", "activity, negative = toxicity": "inactive: -0.662%"},
      {"smiles": "Cc1ccc(-n2sc3ccccc3c2=O)cc1S(=O)(=O)N1CCCCC1", "Potency": "inconclusive [cytotoxic, partial curve]"},
      {"smiles": "CCCC(=O)Nc1ccc(NC(=O)Cc2ccccc2)cn1", "activity, negative = toxicity": "inactive: -1.31%"},
      {"smiles": "CCOC(=O)NC(=S)Nc1ccc(C(C)(C)C)cc1Br", "Potency": "inconclusive [cytotoxic, single point]"},
      {"smiles": "Cc1occc1C(=O)Nc1nnc(-c2cccs2)s1", "activity, negative = toxicity": "inconclusive: 30.7%"},
      {"smiles": "CCc1cnc(Nc2nc(C(N)Cc3ccc(Cl)cc3)cs2)nc1", "note": "(stereo unspecified)", "Potency": "inconclusive [cytotoxic, single point]"},
      {"smiles": "CCOCCOC(=O)c1[nH]c2c(c1C)C(=O)CC(c1ccc(N(C)C)cc1)C2", "note": "(stereo unspecified)", "Potency": "inconclusive [cytotoxic, single point]"},
      {"smiles": "CC(C)(C)C(=O)/C(=C/c1ccc(Cl)cc1)n1cncn1", "activity, negative = toxicity": "inactive: -21.9%"},
      {"smiles": "Cc1cc(Cl)ccc1OCC(=O)NC(=S)Nc1ccccc1N1CCOCC1", "activity, negative = toxicity": "inactive: -0.44%"},
      {"smiles": "CCOc1ccc(N2C(=O)CC(Sc3nc(O)c(CC)c(=O)[nH]3)C2=O)cc1", "note": "(stereo unspecified)", "activity, negative = toxicity": "inactive: 9.82%"},
      {"smiles": "O=[N+]([O-])c1cccc(S(=O)(=O)/N=C(/Nc2ccccc2)c2ccccc2)c1", "activity, negative = toxicity": "inactive: 0.26%"},
      {"smiles": "Cc1cnc(NC(=O)c2ccc(F)c(S(=O)(=O)N3CCOCC3)c2)s1", "activity, negative = toxicity": "inactive: 3.81%"},
      {"smiles": "Cc1nn(C)c(C)c1/C=C(/C(=O)C(C)(C)C)n1cncn1", "Potency": "inconclusive [cytotoxic, partial curve]"},
      {"smiles": "N#CC(=C1C=C(Br)C(=NO)C=C1Cl)c1ccc(Cl)cc1", "activity, negative = toxicity": "inactive: -18.8%"},
      {"smiles": "CCc1ccc(OCC2c3cc(OC)c(OC)cc3CCN2C(=S)NC)cc1", "note": "(stereo unspecified)", "Potency": "inconclusive [cytotoxic, single point]"},
      {"smiles": "O=C(Nc1nnc(-c2ccco2)o1)c1ccc(S(=O)(=O)N2CCCC2)cc1", "Potency": "inconclusive [cytotoxic, single point]"},
      {"smiles": "c1ccc(-[n+]2nc(Nc3cccc4ccccc34)sc2-c2c3ccccc3cc3ccccc23)cc1", "Potency": "active: 8.2 µM"},
      {"smiles": "CCOC(=O)c1ccc(N2C(=O)c3n[nH]c(C)c3C2c2ccc(OC)cc2)cc1", "note": "(stereo unspecified)", "Potency": "inconclusive [cytotoxic, single point]"},
      {"smiles": "COC(=O)c1[nH]c2ccc(F)cc2c1NC(=O)Nc1ccc(OC)cc1", "Potency": "inconclusive [cytotoxic, partial curve]"},
      {"smiles": "N/C(=N\\OC(=O)c1ccc2c(c1)OCO2)c1ccc(Cl)cc1", "Potency": "inconclusive [cytotoxic, single point]"},
      {"smiles": "CCC1(OC(=O)CN(C)C)C(=O)OCc2c1cc1n(c2=O)Cc2cc3c(N)cccc3nc2-1", "note": "(stereo unspecified)", "Potency": "active: 7.31 µM"},
      {"smiles": "O=C(Nc1ccc(SC(F)F)cc1)c1ccc(F)cc1", "activity, negative = toxicity": "inactive: -3.24%"},
      {"smiles": "Cc1cnc(C)c(Nc2nc(C(N)c3ccccc3)cs2)n1", "note": "(stereo unspecified)", "Potency": "inconclusive [cytotoxic, partial curve]"},
      {"smiles": "CC1(C)OC(=O)C(=Cc2ccc(-c3ccc(S(N)(=O)=O)cc3)o2)C(=O)O1", "Potency": "inconclusive [cytotoxic, single point]"},
      {"smiles": "COC(=O)c1ccc(NC(=O)c2nc(S(=O)(=O)Cc3cccc(C)c3)ncc2Cl)cc1", "Potency": "active: 20.6 µM"},
      {"smiles": "Cc1cccc(C)c1-n1c(C)cc(/C=C2\\NC(=O)NC2=O)c1C", "Potency": "inconclusive [cytotoxic, single point]"},
      {"smiles": "Cc1c(NC(=S)N/N=C/c2cc([N+](=O)[O-])ccc2O)c(=O)n(-c2ccccc2)n1C", "Potency": "inconclusive [cytotoxic, partial curve, poor fit]"},
      {"smiles": "O=C1/C(=C\\c2ccc3ccccc3c2)CCCc2ccccc21", "Potency": "active: 13 µM"},
      {"smiles": "Cc1ccccc1OCc1nnc(SCC(=O)Nc2ccc3nc(SCC(=O)Nc4ccccc4)sc3c2)n1C", "activity, negative = toxicity": "inconclusive: -31.7% [cytotoxic]"},
      {"smiles": "Cc1cc(OCC(=O)OCC(=O)N(Cc2ccccc2)C(C)(C)C)ccc1Cl", "activity, negative = toxicity": "inactive: 6.25%"},
      {"smiles": "COCCCNCCCOc1ccc(Cl)cc1C(C)(C)C", "Potency": "active: 20.6 µM"},
      {"smiles": "COc1cccc(C2c3[nH]c4ccccc4c3C[C@H]3C(=O)N(C4CCN(Cc5ccccc5)CC4)CC(=O)N23)c1", "note": "(stereo partly specified)", "Potency": "inconclusive [cytotoxic, single point]"},
      {"smiles": "Cc1ccc(NC(=O)c2ncn(CCCNCC3CCCCC3)n2)cc1C", "Potency": "inconclusive [cytotoxic, single point]"},
      {"smiles": "COc1cc(C)c(C)cc1S(=O)(=O)N1CCN(Cc2ccccc2)CC1", "activity, negative = toxicity": "inconclusive: 0%"},
      {"smiles": "O=C(Cn1c(=O)n(CC2CCCO2)c(=O)c2ccccc21)c1ccc(Cl)c(Cl)c1", "note": "(stereo unspecified)", "Potency": "inconclusive [cytotoxic, partial curve]"},
      {"smiles": "COc1nccnc1NS(=O)(=O)c1ccc(NC(=S)NC(=O)c2ccccc2)cc1", "Potency": "inconclusive [cytotoxic, partial curve]"},
      {"smiles": "COc1ccc(Cl)c(N2CCN(CCCNC(=O)Nc3ccc(C)cc3)CC2)c1", "Potency": "inconclusive [cytotoxic, partial curve, poor fit]"},
      {"smiles": "CC(=O)N(CCCc1ccc(C(C)(C)C)cc1)CCCN(C)C", "activity, negative = toxicity": "inactive: 0.276%"},
      {"smiles": "Cc1ccc2c(c1)C(=O)CCN2", "Potency": "inconclusive [rising, single point]"},
      {"smiles": "COc1ccc(C(=O)N2CCc3cc(OC)c(OC)cc3C2)cc1OC", "Potency": "inconclusive [cytotoxic, partial curve]"},
      {"smiles": "Cc1ccc(-c2nn(-c3ccccc3)cc2/C=N/NC(=O)c2ccncc2)o1", "Potency": "inconclusive [cytotoxic, single point]"},
      {"smiles": "COc1cc(C(=O)NC(=S)NCc2ccco2)cc(OC)c1OC", "Potency": "inconclusive [cytotoxic, single point]"},
      {"smiles": "c1ccc(-c2cc(-c3nc4ccccc4[nH]3)c3ccccc3n2)cc1", "Potency": "inconclusive [cytotoxic, single point]"},
      {"smiles": "COc1cc(Br)ccc1C1CC(=O)C(C)C(c2ccc(Br)cc2OC)N1", "note": "(stereo unspecified)", "activity, negative = toxicity": "inactive: -0.441%"},
      {"smiles": "CCc1ccc(NC(=O)c2noc3c2CCCCC3)cc1", "Potency": "inconclusive [cytotoxic, single point]"},
      {"smiles": "O=C(Nc1cccc(NC(=O)c2ccc(-c3ccc(Br)cc3)o2)c1)c1ccco1", "Potency": "inconclusive [cytotoxic, single point]"},
      {"smiles": "O=C(CSc1nnc(Cc2cccs2)n1C1CCCCC1)N1CCCc2ccccc21", "Potency": "inconclusive [cytotoxic, single point]"},
      {"smiles": "C=CCOc1ccc(CN(C)C(=O)CNC(=O)c2ccc(-c3ccccc3)cc2)cc1", "Potency": "inconclusive [cytotoxic, partial curve]"},
      {"smiles": "CCCCC[C@H](C)N1C[C@@H](COCc2ccccc2)Oc2cc(N3CCC[C@@H]3CO)ccc2S1(=O)=O", "activity, negative = toxicity": "inactive: 6.19%"},
      {"smiles": "COCCNC(=O)/C(C#N)=C/c1cccc(/C=C(\\C#N)C(=O)NCCOC)c1", "Potency": "inconclusive [cytotoxic, single point]"},
      {"smiles": "CN1CCN(C2Cc3ccc(F)cc3Sc3cc(F)c(Cl)cc32)CC1", "note": "(stereo unspecified)", "Potency": "inconclusive [cytotoxic, single point]"},
      {"smiles": "O=C(CSCc1cccc(CSCC(=O)Nc2ccc3ccccc3c2)n1)Nc1ccc2ccccc2c1", "activity, negative = toxicity": "inactive: -18.8%"},
      {"smiles": "C/C(=N\\NC(=O)c1c[nH]c2ccccc12)c1ccccn1", "Potency": "inconclusive [cytotoxic, partial curve]"},
      {"smiles": "C=C1C(=O)O[C@H]2C[C@]3(C)C([C@@H](OC(=O)/C(C)=C/C)[C@H]12)[C@](C)(O)CC[C@H]3O", "note": "(stereo partly specified)", "Potency": "inconclusive [cytotoxic, single point]"},
      {"smiles": "COC(=O)/C=C1/SC(=NC(=O)c2ccc(F)cc2)NC1=O", "activity, negative = toxicity": "inconclusive: 30%"},
      {"smiles": "CC[n+]1ccc(C)c2cc(S(=O)C(F)(F)F)ccc21", "note": "(stereo unspecified)", "Potency": "inconclusive [cytotoxic, single point]"},
      {"smiles": "O=C(N/N=C/c1ccccc1O)c1cccc(C(F)(F)F)c1", "Potency": "active: 2.59 µM"},
      {"smiles": "Cc1cc(C(=O)CSc2nnc(-c3ccccc3)o2)c(C)n1CC1COc2ccccc2O1", "note": "(stereo unspecified)", "Potency": "inconclusive [cytotoxic, single point]"}
    ]}
  ]
}
